Test results published in PubChem BioAssay AID588342 (National Center for Advancing Translational Sciences (NCATS), 2011).
Out of some 360,000 compounds screened, about 25,000 (6.9%) were called active. Inconclusive means that the source gave no clear call. Such entries were picked first, then a sample of the others. Calls follow the shape of the dose curve; as a rule, active = well fitted inhibition curve with a large enough effect; inconclusive = small, poorly fitted or top-dose-only effect; inactive = flat fitted curve, though single readings scatter. Potencies beside an inconclusive call are fits to weak or partial responses and may not hold up.

Molecular target: Luciferin 4-monooxygenase (Photinus pyralis) (UniProt P08659)
Sequence of UniProt P08659 (P08659 whole entry, looked up): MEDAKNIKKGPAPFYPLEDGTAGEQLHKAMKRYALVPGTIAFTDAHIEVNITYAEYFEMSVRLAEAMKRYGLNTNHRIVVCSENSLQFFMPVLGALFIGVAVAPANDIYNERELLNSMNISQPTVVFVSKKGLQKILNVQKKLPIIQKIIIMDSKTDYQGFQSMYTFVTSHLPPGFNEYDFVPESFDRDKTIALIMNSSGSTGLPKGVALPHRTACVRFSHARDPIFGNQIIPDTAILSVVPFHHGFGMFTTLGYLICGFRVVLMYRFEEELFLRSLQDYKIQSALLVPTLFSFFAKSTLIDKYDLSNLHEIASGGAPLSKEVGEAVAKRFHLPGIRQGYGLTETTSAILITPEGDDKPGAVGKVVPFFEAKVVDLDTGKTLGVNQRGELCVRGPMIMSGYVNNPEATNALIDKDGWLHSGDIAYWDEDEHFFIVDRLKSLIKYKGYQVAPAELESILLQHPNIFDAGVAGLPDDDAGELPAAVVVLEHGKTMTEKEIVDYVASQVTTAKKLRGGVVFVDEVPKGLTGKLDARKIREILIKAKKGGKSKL
Assay: qHTS profiling assay for firefly luciferase inhibitor/activator using purifed enzyme and Km concentrations of substrates (counterscreen for miR-21 project); also: nearly all actives have a fitted effect of over 55% in size
Details: purified FLuc, luminescence inhibition; series mostly up to 57.5 µM
Procedure, shortened: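 Purified P. pyralis luciferase (10nM final) with 10uM D-luciferin and 10uM ATP (Km levels) in 50mM Tris acetate pH 7.5, 10mM Mg acetate, 0.01% Tween-20, 0.05% BSA; qHTS 6-point titration, ~60 µM downward; luminescence read.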
Potency is read from the fitted curve at half-maximal effect; tags tell the direction and shape of the fitted curve.

| SMILES | Potency |
| --- | --- |
| CC(C)(C)c1csc(NC(=O)c2ccc3nccnc3c2)n1 | active: 8.49 µM |
| Cc1ccc(NC(=O)C(=O)NCc2ccc(/C=N/NC(=O)c3c(C)nc4cc(C)ccn34)o2)cc1 | active: 2.13 µM |
| Cc1cc(C)n(-c2cc(C(C)(C)C)nc3c(-c4ccccc4)cnn23)n1 | active: 1.9 µM |
| COc1ccc(/C=N/n2c(C)cc(C)cc2=O)cc1 | inconclusive: 26.9 µM [inhibitor, partial curve, poor fit] |
| O=C(O)/C=C/C(=O)Nc1ccccc1SC(F)(F)C(F)(F)C(F)(F)F | inconclusive: 21.3 µM [inhibitor, partial curve, poor fit] |
| O=C(NCc1cn(-c2ccccc2)nc1-c1ccccc1)c1cccc([N+](=O)[O-])c1 | inconclusive: 10.7 µM [inhibitor, partial curve] |
| CC(Sc1nc2cc(Cl)ccc2s1)C(=O)Nc1ccc2c(c1)OCO2 (configuration not stated) | inconclusive: 21.3 µM [inhibitor, partial curve, poor fit] |
| COc1ccc(CCNC(=O)c2cc(-c3ccc(C)c(C)c3O)n[nH]2)cc1OC | inconclusive: 26.9 µM [inhibitor, single point] |
| Cc1ccc2cc(CCNC(=O)c3ccco3)c(=O)[nH]c2c1C | active: 4.26 µM |
| CCOC(=O)c1sc2nc3n(c(=O)c2c1C)CCC3 | inconclusive: 37.9 µM [inhibitor, partial curve, poor fit] |
| COC(=O)c1ccc(NC(=O)C(=O)NCCc2csc3nc(-c4ccccc4F)nn23)cc1 | inactive |
| CSc1ccccc1NC(=O)c1ccc(Br)o1 | inconclusive: 23.9 µM [inhibitor, single point] |
| COc1ccc(N2CCN(C(=O)COC(=O)CCc3ccccc3OC)CC2)cc1 | inactive |
| O=C(NCc1ccc2c(c1)CCN2C(=O)c1ccc(F)cc1)c1c(F)cccc1F | inconclusive: 26.9 µM [inhibitor, single point] |
| COC(=O)[C@H](Cc1ccccc1)NC(=O)N1CCC(C)CC1 | inconclusive: 37.9 µM [inhibitor, partial curve, poor fit] |
| CCOCCCNC(=O)Cn1ncc2c([nH]c3ccccc32)c1=O | inactive |
| Cn1ccnc1SCc1cn2cc(Br)ccc2n1 | active: 3.79 µM |
| COc1ccc(Nc2nc(N)c([N+](=O)[O-])c(NCCO)n2)cc1 | inconclusive: 23.9 µM [inhibitor, partial curve, poor fit] |
| Nc1nnc(SCc2ccccc2Cl)s1 | inconclusive: 23.9 µM [inhibitor, partial curve, poor fit] |
| O=C(O)c1cc(O)c2c(c1)C(=O)c1cc(O)cc(O)c1C2=O | inconclusive: 21.3 µM [inhibitor, single point] |
| COc1ccc(Cl)cc1NC(=O)COC(=O)C1CCCCC1 | active: 15.1 µM |
| N#CC(=C1CCCC1)c1nc(-c2cc3ccccc3oc2=O)cs1 | active: 2.13 µM |
| CCc1c(C(=O)NN2C(=O)C3CCCCC3C2=O)csc1C (configuration not stated) | inconclusive: 33.8 µM [inhibitor, partial curve, poor fit] |
| CNC(=S)SCCOc1ccccc1 | active: 15.1 µM |

| SMILES | Potency |
| --- | --- |
| Cc1cc(=O)[nH]c(SCC(=O)OCc2ccccc2)c1C#N | inconclusive: 23.9 µM [inhibitor, single point] |
| Oc1sc(C=Nc2ccc(F)cc2)c2ccccc12 | inconclusive: 3.79 µM [inhibitor, full curve] |
| COc1ccc(-c2nc(N)nc(N)n2)c(O)c1 | inconclusive: 7.57 µM [inhibitor, single point] |
| Clc1ccc(CN=C2Nc3ccccc3CS2)cc1 | active: 6.01 µM |
| COc1ccc(-c2noc(CCC(=O)NC3CCCCCC3)n2)cc1 | inconclusive: 21.3 µM [inhibitor, partial curve, poor fit] |
| O=C(NC(=S)Nc1nc(-c2ccccc2)cs1)c1ccco1 | inconclusive: 6.75 µM [inhibitor, full curve] |
| O=C(O)COc1ccccc1C(Nc1cccnc1)c1cc(Cl)c2cccnc2c1O (configuration not stated) | inconclusive: 10.7 µM [inhibitor, partial curve] |
| Cc1cccc(N2CCN(C(=O)c3cc4ccc5cccnc5c4[nH]3)CC2)c1C | inactive |
| CN1CCN(c2ccc(NC(=O)c3ccc4ccccc4c3)cc2)CC1 | active: 1.9 µM |
| COc1ccc(Oc2nnc(C)c3ccccc23)cc1 | active: 12 µM |
| CCOC(=O)C1=C(Cc2ccc(C)cc2)C(=O)c2ccccc2C1=O | active: 13.5 µM |
| COC(=O)CSc1nc(N)c2c3c(sc2n1)CCCC3 | active: 9.53 µM |
| COc1ccc2nc(NC(=O)Cc3cccs3)sc2c1 | active: 12 µM |
| c1ccc2c(c1)OCC(CNc1ncnc3sccc13)O2 (configuration not stated) | inconclusive: 37.9 µM [inhibitor, partial curve, poor fit] |
| CCOC(=O)c1ccc(NC(=O)c2cc(=O)c3ccc(C)c(C)c3o2)cc1 | inactive |
| O=C(COc1ccc(Br)cc1CO)Nc1ccccc1F | inconclusive: 19 µM [inhibitor, partial curve] |
| Cc1ccnn1CC(=O)N/N=C/c1ccc2c(c1)OCO2 | inconclusive: 26.9 µM [inhibitor, single point] |
| O=c1c2ccc([N+](=O)[O-])cc2ncn1CCOc1ccccc1 | inconclusive: 37.9 µM [inhibitor, single point] |
| Cc1cc(NC(=O)c2cc(-c3ccc(OC(C)C)cc3)nc3ccccc23)no1 | active: 3.01 µM |
| COc1ccccc1OCC(=O)Nc1ccccc1C(=O)Nc1cccc(C(=O)O)c1 | inconclusive: 37.9 µM [inhibitor, partial curve, poor fit] |
| Cc1ccc(OCc2ccc(C(=O)NN)o2)c([N+](=O)[O-])c1 | inconclusive: 21.3 µM [inhibitor, partial curve] |
| Clc1ccc(C2[C@H]3CN(Cc4ccc(-c5ccccc5)cc4)[C@H](c4ccccc4)C34CC2(c2cccnc2)C4)cn1 (some centres not stated) | inactive |
| CN(C)c1ccc(-c2nc3ccc(Cl)cn3c2Nc2ccc3c(c2)OCCO3)cc1 | inconclusive: 7.57 µM [inhibitor, full curve] |
